{
  "source": "PubChem BioAssay (NCATS)",
  "note": "Where “and” joins values, the source holds several entries; their conditions need not be identical. Equal values may be shown once. The shares of active, inactive and inconclusive entries below differ from those in the screen. Potencies beside an inconclusive call are fits to weak or partial responses and may not hold up. Calls of active or inactive are those of the source. Calls follow the shape of the dose curve; as a rule, active = well fitted inhibition curve with a large enough effect; inconclusive = small, poorly fitted or top-dose-only effect; inactive = no such curve, though single readings can be large or run the other way. % is scaled to controls: 0 for no effect and ±100 for the full control effect; potency is read from the fitted curve at half-maximal effect; tags tell the direction and shape of the fitted curve.",
  "data": [
    {"test": "Primary qHTS for small molecule stabilizers of the endoplasmic reticulum resident proteome: Secreted ER Calcium Modulated Protein (SERCaMP) assay (AID 1508630)", "conditions": "SH-SY5Y GLuc-SERCaMP (Gaussia luciferase released on ER calcium loss) secretion, thapsigargin, luminescence; activity change, negative = inhibition: at 38.4 µM (top of the series)", "procedure,_shortened": "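The SH-SY5Y reporter protocol was run at 3 concentrations up to 38.3 uM (primary) or 11 concentrations (follow-up): 16 h compound, 100 nM thapsigargin for 4 h, then extracellular luciferase luminescence.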", "values": [
      {"smiles": "C[C@H](CCC(=O)O)[C@H]1CC[C@H]2[C@@H]3[C@H](O)C[C@@H]4C[C@H](O)CC[C@]4(C)[C@@H]3CC[C@]12C", "activity change, negative = inhibition": "inactive: -29.1%"},
      {"smiles": "O=P(O)(O)C(O)(Cc1cccnc1)P(=O)(O)O", "Potency": "inconclusive: 10 µM [inhibitor, partial curve, poor fit]"},
      {"smiles": "CN(CC(=O)N(Cc1ccc(C2CCCCC2)cc1)c1ccc(C(=O)O)c(O)c1)S(=O)(=O)c1c(F)c(F)c(F)c(F)c1F", "activity change, negative = inhibition": "inactive: -10.6%"},
      {"smiles": "COc1cc(CNC(=O)CCCCC=CC(C)C)ccc1O", "Potency": "inconclusive: 3.98 µM [inhibitor, full curve, poor fit]"},
      {"smiles": "CC(C)c1onc(-c2c(Cl)cccc2Cl)c1COc1ccc(C=Cc2cccc(C(=O)O)c2)c(Cl)c1", "activity change, negative = inhibition": "inactive: -16.5%"},
      {"smiles": "CC[C@H]1OC(=O)[C@H](C)[C@@H](O[C@H]2C[C@@](C)(OC)[C@@H](O)[C@H](C)O2)[C@H](C)[C@@H](O[C@@H]2O[C@@H](C)C[C@H](N(C)C)[C@@H]2O)[C@](C)(O)C[C@@H](C)C(=O)[C@H](C)[C@@H](O)[C@]1(C)O", "Potency": "inconclusive: 29.8 µM [inhibitor, single point]"},
      {"smiles": "Cc1cccc(CN2CCN(C(c3ccccc3)c3ccc(Cl)cc3)CC2)c1", "note": "(stereo not drawn)", "activity change, negative = inhibition": "inconclusive: -35.6% [inhibitor]"},
      {"smiles": "OCCn1cc(-c2ccc3c(c2)CCC3=NO)c(-c2ccncc2)n1", "activity change, negative = inhibition": "inactive: 133%"},
      {"smiles": "O=C(NCCS(=O)(=O)c1ccc(C(F)(F)F)cn1)c1ccc(Cl)cc1", "Potency": "inconclusive: 29.8 µM [inhibitor, single point]"},
      {"smiles": "Nc1nc2c(ncn2COC(CO)CO)c(=O)[nH]1", "Potency": "inconclusive: 2.51 µM [inhibitor, full curve, poor fit] and inconclusive: 10 µM [inhibitor, partial curve, poor fit]"},
      {"smiles": "OC[C@@H](O)[C@@H](O)[C@H](O)[C@@H](O)CO", "Potency": "inconclusive: 0.0015 µM [inhibitor, full curve, poor fit]"},
      {"smiles": "CCCCCN(CCC12CC3CC(CC(C3)C1)C2)C(=O)NCCCc1ccncc1", "Potency": "inconclusive: 29.8 µM [inhibitor, single point]"},
      {"smiles": "COCC(=O)NCC=Cc1ccc2ncnc(Nc3ccc(Oc4ccc(C)nc4)c(C)c3)c2c1", "activity change, negative = inhibition": "inactive: 12%"},
      {"smiles": "C[C@]12CC[C@@H]3c4ccc(O)cc4CC[C@H]3[C@H]1[C@@H](O)[C@@H](O)[C@H]2O", "activity change, negative = inhibition": "inactive: 150%"},
      {"smiles": "CC(O)C1C(=O)N2C(C(=O)O)=C(SC3CNC(C(=O)N(C)C)C3)C(C)C12", "note": "(stereo not drawn)", "activity change, negative = inhibition": "inactive: 111%"},
      {"smiles": "CCOC(=O)C(C)Oc1cccc2c(=O)n(CC(=O)Nc3ccc4c(c3)OCCO4)ccc12", "note": "(stereo not drawn)", "Potency": "inconclusive: 0.0053 µM [inhibitor, full curve, poor fit]"},
      {"smiles": "COc1cc(N2CCN(C)CC2)ccc1Nc1nc(N)c(C(=O)c2c(Cl)cccc2Cl)s1", "Potency": "inconclusive: 2.98 µM [inhibitor, full curve]"},
      {"smiles": "O=C(CN1C(=O)C2(CCCC2)NC[C@H]1c1cc(F)cc(F)c1)Nc1ccc2c(c1)C[C@@]1(C2)C(=O)Nc2ncccc21", "activity change, negative = inhibition": "inactive: 0%"},
      {"smiles": "O=C(Nc1nnc(-c2ccco2)o1)c1cc(-c2ccccc2)nc2ccccc12", "activity change, negative = inhibition": "inactive: 20.3%"},
      {"smiles": "C[C@H]1O[C@H](O[C@H]2[C@H](O)[C@@H](O)[C@@H](O[C@H]3[C@H](O)[C@@H](O)C(O)O[C@H]3CO)O[C@H]2CO)[C@H](O)[C@@H](O)[C@H]1N[C@H]1C=C(CO)[C@@H](O)[C@H](O)[C@@H]1O", "note": "(stereo partly drawn)", "activity change, negative = inhibition": "inactive: -12.3%"},
      {"smiles": "CCCCC[C@H](O)C=C[C@H]1[C@H](O)CC(=O)[C@H]1CCCCCCC(=O)O", "Potency": "inconclusive: 39.8 µM [inhibitor, full curve]"},
      {"smiles": "NC(=O)c1cnccn1", "Potency": "inconclusive: 2 µM [inhibitor, full curve] and inconclusive: 2.51 µM [inhibitor, full curve, poor fit] and inconclusive: 31.6 µM [inhibitor, partial curve, poor fit]"},
      {"smiles": "COc1ccc2cc1Oc1ccc(cc1)C[C@H]1c3cc(c(OC)cc3CCN1C)Oc1c(OC)c(OC)cc3c1[C@H](C2)N(C)CC3", "Potency": "inactive"}
    ]}
  ]
}
